The target in test [1] is T1, Flag-tagged HspBP1_mut (A137R, K249A) (human) (UniProt Q9NZL4).
T1 sequence: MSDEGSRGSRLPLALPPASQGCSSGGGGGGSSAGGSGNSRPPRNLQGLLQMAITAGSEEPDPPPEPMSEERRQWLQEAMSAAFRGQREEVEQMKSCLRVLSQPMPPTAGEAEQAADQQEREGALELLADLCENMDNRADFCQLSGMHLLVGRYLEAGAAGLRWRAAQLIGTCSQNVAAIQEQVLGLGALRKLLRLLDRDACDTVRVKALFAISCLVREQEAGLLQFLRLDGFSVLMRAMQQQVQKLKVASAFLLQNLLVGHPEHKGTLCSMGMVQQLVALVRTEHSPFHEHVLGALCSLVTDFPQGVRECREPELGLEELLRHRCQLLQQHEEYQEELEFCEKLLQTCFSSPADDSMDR
The test is described as follows: co-IP; Flag-tagged NEF precipitated with anti-Flag M2 agarose from 1.5 mg HEK293 cellular extract in 1 ml; no ATP added; eluted with Flag-peptide; Western blot and colloidal Coomassie.

Chains of the proteins cited; added tags and fusions are not shown.
UniProt P11142: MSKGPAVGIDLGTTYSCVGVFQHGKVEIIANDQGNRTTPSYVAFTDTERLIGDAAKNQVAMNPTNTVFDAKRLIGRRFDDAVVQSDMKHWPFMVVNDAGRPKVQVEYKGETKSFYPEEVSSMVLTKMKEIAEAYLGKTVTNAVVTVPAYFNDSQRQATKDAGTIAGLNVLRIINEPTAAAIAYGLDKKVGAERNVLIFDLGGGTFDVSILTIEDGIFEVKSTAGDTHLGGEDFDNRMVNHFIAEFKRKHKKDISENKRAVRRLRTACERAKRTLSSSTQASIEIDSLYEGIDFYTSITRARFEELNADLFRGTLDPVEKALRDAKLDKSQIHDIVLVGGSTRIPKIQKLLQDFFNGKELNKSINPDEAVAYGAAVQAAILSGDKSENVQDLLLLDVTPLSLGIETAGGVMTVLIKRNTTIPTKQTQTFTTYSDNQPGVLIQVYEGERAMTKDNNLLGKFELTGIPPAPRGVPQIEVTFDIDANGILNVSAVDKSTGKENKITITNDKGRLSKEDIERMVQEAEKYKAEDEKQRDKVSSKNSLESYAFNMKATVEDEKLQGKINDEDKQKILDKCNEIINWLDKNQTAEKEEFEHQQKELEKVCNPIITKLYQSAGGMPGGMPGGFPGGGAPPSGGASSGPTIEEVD
UniProt Q9UNE7: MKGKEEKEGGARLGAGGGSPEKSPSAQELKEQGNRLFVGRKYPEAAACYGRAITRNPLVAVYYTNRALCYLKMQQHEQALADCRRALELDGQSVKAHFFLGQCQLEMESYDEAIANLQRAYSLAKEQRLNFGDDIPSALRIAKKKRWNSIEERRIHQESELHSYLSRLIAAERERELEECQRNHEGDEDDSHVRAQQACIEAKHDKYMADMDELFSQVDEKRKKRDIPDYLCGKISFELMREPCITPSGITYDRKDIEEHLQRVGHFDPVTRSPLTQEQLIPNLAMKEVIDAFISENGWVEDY
UniProt P10275: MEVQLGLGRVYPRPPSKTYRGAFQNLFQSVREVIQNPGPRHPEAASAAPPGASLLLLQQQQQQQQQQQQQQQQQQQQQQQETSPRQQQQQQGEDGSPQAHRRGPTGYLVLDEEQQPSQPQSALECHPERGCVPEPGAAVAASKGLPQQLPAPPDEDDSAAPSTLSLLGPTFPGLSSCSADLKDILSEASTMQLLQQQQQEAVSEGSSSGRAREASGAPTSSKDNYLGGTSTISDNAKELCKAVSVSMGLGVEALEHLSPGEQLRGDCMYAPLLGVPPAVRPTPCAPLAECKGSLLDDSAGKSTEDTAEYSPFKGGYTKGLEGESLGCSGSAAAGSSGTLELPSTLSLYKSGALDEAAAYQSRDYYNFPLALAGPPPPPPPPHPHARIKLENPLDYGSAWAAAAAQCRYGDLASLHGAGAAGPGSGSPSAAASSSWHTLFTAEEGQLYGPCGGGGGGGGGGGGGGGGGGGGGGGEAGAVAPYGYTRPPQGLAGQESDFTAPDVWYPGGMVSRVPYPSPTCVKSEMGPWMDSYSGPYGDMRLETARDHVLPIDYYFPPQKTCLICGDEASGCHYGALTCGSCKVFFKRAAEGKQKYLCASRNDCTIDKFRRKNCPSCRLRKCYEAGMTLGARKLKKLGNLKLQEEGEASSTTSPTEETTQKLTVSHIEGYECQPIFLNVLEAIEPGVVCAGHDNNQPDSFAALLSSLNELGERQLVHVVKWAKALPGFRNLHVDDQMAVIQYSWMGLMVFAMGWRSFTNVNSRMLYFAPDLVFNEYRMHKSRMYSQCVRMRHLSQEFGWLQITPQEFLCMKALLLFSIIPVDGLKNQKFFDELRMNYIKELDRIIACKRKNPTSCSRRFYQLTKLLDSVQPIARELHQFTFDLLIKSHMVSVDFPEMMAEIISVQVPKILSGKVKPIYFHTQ
UniProt P04150: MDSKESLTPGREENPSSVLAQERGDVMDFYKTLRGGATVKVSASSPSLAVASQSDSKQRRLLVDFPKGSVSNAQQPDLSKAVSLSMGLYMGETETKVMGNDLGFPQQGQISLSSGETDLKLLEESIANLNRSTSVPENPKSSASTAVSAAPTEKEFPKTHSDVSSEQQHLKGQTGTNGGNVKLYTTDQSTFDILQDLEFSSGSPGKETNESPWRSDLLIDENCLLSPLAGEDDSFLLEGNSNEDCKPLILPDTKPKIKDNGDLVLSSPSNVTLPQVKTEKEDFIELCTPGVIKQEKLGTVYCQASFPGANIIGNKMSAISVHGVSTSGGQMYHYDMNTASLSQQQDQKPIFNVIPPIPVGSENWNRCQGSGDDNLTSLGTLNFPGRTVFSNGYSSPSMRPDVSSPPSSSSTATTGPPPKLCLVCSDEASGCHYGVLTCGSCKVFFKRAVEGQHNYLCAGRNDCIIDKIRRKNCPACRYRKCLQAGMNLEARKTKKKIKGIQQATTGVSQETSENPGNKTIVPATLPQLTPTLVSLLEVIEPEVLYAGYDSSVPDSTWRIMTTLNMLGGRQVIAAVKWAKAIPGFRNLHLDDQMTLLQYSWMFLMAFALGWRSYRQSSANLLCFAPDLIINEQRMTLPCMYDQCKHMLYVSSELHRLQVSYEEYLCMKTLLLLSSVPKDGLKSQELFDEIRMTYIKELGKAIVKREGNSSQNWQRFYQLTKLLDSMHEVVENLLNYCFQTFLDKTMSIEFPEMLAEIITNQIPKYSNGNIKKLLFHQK
UniProt P08235: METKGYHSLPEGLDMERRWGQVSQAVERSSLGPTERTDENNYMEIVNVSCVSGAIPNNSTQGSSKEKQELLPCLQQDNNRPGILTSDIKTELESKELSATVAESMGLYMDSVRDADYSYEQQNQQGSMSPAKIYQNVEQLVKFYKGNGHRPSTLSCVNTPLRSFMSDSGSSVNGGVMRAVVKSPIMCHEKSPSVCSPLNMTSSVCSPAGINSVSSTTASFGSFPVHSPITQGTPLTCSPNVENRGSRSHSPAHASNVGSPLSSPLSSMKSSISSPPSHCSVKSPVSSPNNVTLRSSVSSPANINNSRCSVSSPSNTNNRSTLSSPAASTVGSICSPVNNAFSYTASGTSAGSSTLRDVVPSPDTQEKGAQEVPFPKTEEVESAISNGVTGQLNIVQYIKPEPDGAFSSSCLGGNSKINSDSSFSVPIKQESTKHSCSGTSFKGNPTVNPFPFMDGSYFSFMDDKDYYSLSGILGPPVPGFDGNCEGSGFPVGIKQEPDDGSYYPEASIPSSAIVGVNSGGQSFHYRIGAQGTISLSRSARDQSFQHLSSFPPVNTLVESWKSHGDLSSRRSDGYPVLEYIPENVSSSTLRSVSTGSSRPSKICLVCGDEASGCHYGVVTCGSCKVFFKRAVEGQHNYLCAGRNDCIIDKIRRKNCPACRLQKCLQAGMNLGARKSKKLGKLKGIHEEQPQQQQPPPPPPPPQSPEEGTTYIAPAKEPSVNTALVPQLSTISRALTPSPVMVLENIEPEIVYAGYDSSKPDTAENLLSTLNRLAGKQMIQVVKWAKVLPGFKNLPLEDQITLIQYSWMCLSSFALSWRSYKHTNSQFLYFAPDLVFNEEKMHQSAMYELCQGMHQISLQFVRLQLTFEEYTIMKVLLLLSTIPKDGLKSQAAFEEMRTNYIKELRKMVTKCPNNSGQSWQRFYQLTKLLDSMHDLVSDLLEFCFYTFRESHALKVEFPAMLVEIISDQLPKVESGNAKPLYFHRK
UniProt P25685: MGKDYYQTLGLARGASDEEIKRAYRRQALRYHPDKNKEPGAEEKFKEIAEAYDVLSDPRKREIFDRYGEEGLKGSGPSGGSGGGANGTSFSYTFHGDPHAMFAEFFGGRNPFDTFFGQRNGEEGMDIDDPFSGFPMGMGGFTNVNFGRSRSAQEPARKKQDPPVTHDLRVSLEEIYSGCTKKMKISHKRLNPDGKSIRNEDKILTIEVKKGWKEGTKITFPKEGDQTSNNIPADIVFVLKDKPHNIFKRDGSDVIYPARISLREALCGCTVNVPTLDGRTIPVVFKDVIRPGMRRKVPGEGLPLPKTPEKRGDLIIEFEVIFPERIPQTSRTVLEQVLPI
UniProt P0DMV8: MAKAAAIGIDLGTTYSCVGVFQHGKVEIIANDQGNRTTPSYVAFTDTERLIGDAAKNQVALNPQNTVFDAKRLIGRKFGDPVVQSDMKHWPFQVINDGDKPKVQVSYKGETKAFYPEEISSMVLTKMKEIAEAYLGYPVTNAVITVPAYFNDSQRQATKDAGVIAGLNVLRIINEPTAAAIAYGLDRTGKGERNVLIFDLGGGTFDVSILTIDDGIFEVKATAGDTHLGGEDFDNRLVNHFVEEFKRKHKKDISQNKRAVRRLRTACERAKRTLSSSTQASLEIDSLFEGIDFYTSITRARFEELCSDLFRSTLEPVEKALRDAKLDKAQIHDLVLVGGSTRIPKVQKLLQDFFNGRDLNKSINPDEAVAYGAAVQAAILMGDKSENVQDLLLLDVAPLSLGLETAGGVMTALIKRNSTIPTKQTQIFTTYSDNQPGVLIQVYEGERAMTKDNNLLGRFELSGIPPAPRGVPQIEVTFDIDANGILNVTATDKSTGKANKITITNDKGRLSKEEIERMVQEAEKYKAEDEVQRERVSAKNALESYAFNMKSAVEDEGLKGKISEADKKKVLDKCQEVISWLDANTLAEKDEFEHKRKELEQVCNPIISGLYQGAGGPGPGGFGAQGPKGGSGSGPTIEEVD

In test [2] the target is T2, Flag-tagged wild-type Hsp70 binding protein 1 (HspBP1) (human) (UniProt Q9NZL4).
T2 sequence: T1 sequence with R137A, A249K
Described as above.

The target of test [3] is Hsc70, in vitro translated and labeled (UniProt P11142). The test is described as follows: pull-down; same chaperone-binding assay; 7 µM purified NEF pre-incubated for 15 min at room temperature with in vitro translated Hsc70 in reticulocyte lysate before GR-LBD agarose was added; read-out is Hsc70 bound to GR-LBD; only the binder purified.

Substitutions are numbered along the chain they refer to. Results are given in words; binding and its absence hold for the method and conditions named. Binding seen in cells or lysates may run through a third protein. Some results given as binding are weak or reduced against the parent protein; the word gives no strength. Where a sequence is shown, tags or fusion partners need not be part of it.

Turning to “CHIP (E3-ligase), endogenous (from UniProt Q9UNE7 1-303) (enzyme)”, the binding result is on record as “binds weakly” in test [1] and “binds” in test [2]. With “HA-tagged androgen receptor (AR) (from UniProt P10275 1-920)”, the binding result in test [1] is on record as “no binding”. Still for that read-out and setting: for “HA-tagged glucocorticoid receptor (GR) (from UniProt P04150 1-777)” the value was “no binding”; for “HA-tagged mineralocorticoid receptor (MR) (from UniProt P08235 1-984)”, “no binding”. With “Hsc70 (constitutively expressed heat shock protein 70 kilodalton), endogenous (from UniProt P11142 1-646)”, the binding entry in test [2] is “binds”. For “Hsp40/Hdj1, endogenous (from UniProt P25685 1-340)”, the binding entry in test [2] is on record as “no binding”. Consider “inducible Hsp70, endogenous (from UniProt P0DMV8 1-641)”, for which the binding result in test [1] is “binds weakly”; in test [2], “binds”.

B1: purified wild-type HspBP1 (His-tagged) (protein, UniProt Q9NZL4 1-359)
chain: T1 sequence with R137A, A249K
As to B1, the binding result in test [3] is reported as “binds”.

The values are drawn from article PMC3891853.
